Results taken from the RNAGym collection of RNA variant scans (doi:10.1073/pnas.2313332121).
This sample is rich in variants without activity.

B1: TPR 5TU (parent)
chain: GGAUCUUCUCGAUCUAACAAAAAAGACAAAUCUGCCACAAAGCUUGAGAGCAUCUUCGGAUGCAGAGGCGGCAGCCUUCGGUGGCGCGAUAGCGCCAACGUUCUCAACUAUGACACGCAAAACGCGUGCUCCGUUGAAUGGAGUUUAUCAUG

Variants of: B1
Experiment: polymerase ribozyme fitness, log enrichment relative to wild type (log ratio); higher = more active; in vitro selection for triplet polymerase activity
Summary of the method: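 Frozen incubation at −7 °C formed the core of a single, triplicate in vitro selection round applied to PCR-built, transcribed mutant libraries of each subunit of a heterodimeric triplet polymerase ribozyme. Extended constructs were gel-excised, captured with streptavidin beads and amplified by RT-PCR, and input and output libraries were Illumina-sequenced with a filter of ≥10 input reads and ≥1 read per output. Fitness is the logarithm of genotype enrichment relative to wild-type enrichment, with inverse-variance-weighted replicate averaging, and the logarithm is base 2.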

Variant | polymerase ribozyme fitness (log ratio)
C96G A122U | -1.49
C96G A142G U145G A147U | -2.85
C96G A142U U146A | -1.97
C96G C99G | ≤ -4.2
C96G C105G G143A | -3.02
C96G C114U | -2.18
C96G C131A | -2.35
C96G G143C | -2.86
C96G U102A U109C | ≤ -4.2
C96G U130C | 0.873
C96U A97C C108G A120G U127G | ≤ -4.2
C96U A97G | -0.535
C96U A107C | -3.14
C96U A115C | -2.68
C96U A115U | -2.64
C96U A119U | -0.778
C96U A119U G152C | -3.13
C96U A122G | -0.14
C96U A138U | ≤ -4.2
C96U A142C | -1.15
C96U C118G U151G | ≤ -4.2
C96U C123A | -0.106
C96U C123U | -0.655
C96U C131G | -2.66

Variant | polymerase ribozyme fitness (log ratio)
C96U C132A | -1.63
C96U G100A U127G | ≤ -4.2
C96U G126U A137C A138G | ≤ -4.2
C96U G141A G143A | ≤ -4.2
C96U G143A | -0.236
C96U G143C U146C | -1.75
C96U U101C A142C | -1.82
C96U U102C C125U | -2.51
C96U U102G U144A A150U | ≤ -4.2
C96U U104A A107C U148A | ≤ -4.2
C96U U139A | -3.94
A97C A98U U111G | -3.78
A97C C103G C114G | -3.86
A97G A98U | -0.253
A97G G100A C103A | ≤ -4.2
A97G G143A | -1.44
A97G U101G | 0.358
A97G U130G | -2.77
A97U A138C | ≤ -4.2
A97U C108U A121G C132A | ≤ -4.2
A97U G152A | -2.62
A97U U134G | -2.5
A97U U148C | -1.51
A98G A107G U145C | ≤ -4.2

Variant | polymerase ribozyme fitness (log ratio)
A98G A107U | -3.24
A98G A120G | -0.401
A98G G133C | -1.69
A98G U101C G141U | 0.851
A98U A147C | 0.168
A98U C105A A119G A121C | -0.491
A98U C105U | 0.54
A98U G128C G133C U135A | ≤ -4.2
A98U U134G | -2.65
C99A A106U C132G | ≤ -4.2
C99A A107G A110C | ≤ -4.2
C99A C103G A119G | ≤ -4.2
C99A C114U U135G | -3.68
C99A C118G A119C | -0.582
C99A C131G | ≤ -4.2
C99A G136A | -0.217
C99A U102G | ≤ -4.2
C99A U134G | -2.57
C99A U146A | -1.15
C99A U146G | -1.41
C99G A115G U127G C131A | ≤ -4.2
C99G A138C | ≤ -4.2
C99G C108A A110G | ≤ -4.2
C99G C118G U134G U135A G136U U148C | ≤ -4.2

Variant | polymerase ribozyme fitness (log ratio)
C99G C118U U148A | ≤ -4.2
C99G G126A | -0.619
C99G U102G U135A | ≤ -4.2
C99G U104G C105U C118A | ≤ -4.2
C99G U134C | -0.713
C99G U144A U148A | ≤ -4.2
C99G U146C C149G | ≤ -4.2
C99U A107U | -3.88
C99U A119C C125G U134G | -3.27
C99U A147G | -2
C99U C149U | -1.17
C99U G100U | ≤ -4.2
C99U G117C | 0.786
C99U G126A G143U | -3.55
C99U G128A | ≤ -4.2
C99U G136A | 0.0423
C99U U104A U109C A115G | -3.79
C99U U104G | -1.84
C99U U144A | -1.02
G100A | -3.76
G100A A107U | ≤ -4.2
G100A A137G | ≤ -4.2
G100A C103G C116U G128U U130G | ≤ -4.2
G100A C114U A137U G140C | ≤ -4.2

Variant | polymerase ribozyme fitness (log ratio)
G100A G124A | ≤ -4.2
G100A G126A | -4.02
G100C | -3.72
G100C C125U U135G | ≤ -4.2
G100U | -2.58
G100U A106C | ≤ -4.2
G100U C118A G141C | ≤ -4.2
G100U U139C | ≤ -4.2
G100U U139G U146G | ≤ -4.2
U101A C105U C114A | -3.17
U101C C132A | -2.05
U101G A113U | -1.25
U101G A115G | -0.695
U101G A115G C149G | ≤ -4.2
U101G A150G | -0.649
U101G G117A G133U | -4.1
U101G G124A | 0.852
U101G G128U U144G | -4
U101G G133U | -2.8
U101G G136A | 0.652
U101G U134A U144C A150U | -4.09
U102A U139A | ≤ -4.2
U102C A150C | -4.08
U102C C114G | -4.11

Variant | polymerase ribozyme fitness (log ratio)
U102C C131U U134G | -4.13
U102C U134G G136U A138U | ≤ -4.2
U102G A120U | -1.94
U102G A121U | -2.32
U102G A142U | -3.35
U102G C103G G117U G128U G141U | ≤ -4.2
U102G G133A | ≤ -4.2
U102G G136U A137U C149G | ≤ -4.2
U102G G141C A142C U146A | ≤ -4.2
U102G G152U | ≤ -4.2
U102G U104C | ≤ -4.2
U102G U104C U148A A150U | ≤ -4.2
C103A | -1.23
C103A A107U U134A | ≤ -4.2
C103A A120C G124A U134A | -3.66
C103A A150G | -4.09
C103A U109G | -3.53
C103G | -1.4
C103G A106U A107U U139C U144G U145C | ≤ -4.2
C103G A110U C129U G141U | ≤ -4.2
C103G A115C A137G C149G | ≤ -4.2
C103G A120U U146G | -1.37
C103G A121G | -1.32
C103G A138G | -3.66

Variant | polymerase ribozyme fitness (log ratio)
C103G C105U A121G | ≤ -4.2
C103G C123G G136U | -2.77
C103G G117U | -0.61
C103G G141U | -3.36
C103G U135A | -2.27
C103U | -0.357
C103U A115G | -1.14
C103U U134A | -2.39
C103U U139A | -3.96
U104A A137C | -3.89
U104A G140A A142C | ≤ -4.2
U104C A106G | -0.701
U104C C105G | ≤ -4.2
U104C C116G | 0.144
U104C G124U C125A G143U | -3.85
U104G A120C | 0.532
U104G C108A U148C | ≤ -4.2
U104G G126C | 0.0565
U104G U134G G143A | -3.69
C105A | -0.411
C105A A113U | ≤ -4.2
C105A C129G | ≤ -4.2
C105A C149G | ≤ -4.2
